# Experimental data reported in ChEMBL document CHEMBL4888484, “Replenishing the malaria drug discovery pipeline: Screening and hit evaluation of the MMV Hit Generation Library 1 (HGL1) against asexual blood stage Plasmodium falciparum ,using a nano luciferase reporter read-out” (2022).
# The whole screen tested about 150,000 compounds, of which about 540 (0.36%) showed an effect of 50% or more. The list shows a part of the results.
# Tested on: Plasmodium falciparum
# Test: Primary screen in NF54 nanoGlo assay, in single point, at 2uM, 72h; a lower Z score goes with more inhibition
# Type: functional, Erythrocyte
# Settings: timepoint 72 hour
Structure (SMILES),% Inhibition [%],Z score
Cc1cncc(C(=O)OCc2ncc(C(C)(C)C)o2)c1O,-7,0.6
CC(=O)N1CCC(N(C)Cc2sc3ccccc3c2Cl)CC1,-7,1.43
Cc1c(NC(=O)[C@@H]2CCCC[C@@H]2C(=O)N2CCCC2)c(N2CCCC2)nn1C,-9,1.66
Cc1ccc(NC(=O)[C@@H]2CCCN2S(=O)(=O)c2ccc3c(c2)NC(=O)CO3)c(C)c1,-4,0.61
CCN(Cc1nc(C(C)C)no1)C(=O)Cc1cnc2c(C)cccn12,-5,0.82
C[C@@H](Cc1ccsc1)NC(=O)CN1CCCCCC1,10,-1.55
O=C(COc1ccc2ccccc2c1)N1CC(OC[C@H]2CCOC2)C1,25,-3.24
CC(C)Oc1ccc(CN2[C@@H](CO)CN(C)C(=O)[C@@H]2C)cc1,-10,1.32
O=C1c2ccc(Oc3cccc(Oc4ccc5c(c4)C(=O)N(c4ccccn4)C5=O)c3)cc2C(=O)N1c1ccccn1,-10,1.98
CC(=O)N1CCC[C@H](c2nc(-c3cn4ccccc4n3)no2)C1,-8,1.19
CCn1nnnc1NC(=O)COC[C@H]1CCCO1,-12,2.12
CC1CN(C(=O)NCC2CNCCO2)C2CCCCC12 (stereo not drawn),-16,2.34
CCc1ccccc1OCCc1c(C)n[nH]c1C,-11,1.7
O=C(c1ccccc1)c1cc(Cl)ccc1NC(=O)c1c(O)nc2ccc(Cl)cc2c1-c1ccccc1,-14,1.24
C1=CC[C@@H](CN2CCc3nnc(-c4ccccc4)n3CC2)CC1,-9,1.19
CCC(C)C1NC2(CCN(S(=O)(=O)c3ccc(C)cc3)CC2)N(Cc2cccc(C(F)(F)F)c2)C1=O (stereo not drawn),-21,3.11
Cc1ccsc1-c1nccn1CCc1n[nH]c(=O)[nH]1,-17,1.54
Cc1ccc(NC(Nc2ccc(C)cc2)=C(NC(=O)c2ccccc2)C(=O)N2CCCCC2)cc1,7,-0.98
COCCN1C(=O)c2ccc(C(=O)Nc3nnc(C4CC4)s3)cc2C1=O,-17,2.07
CCc1ccc(CN[C@@H](CC)CO)cc1,-4,0.61
CCc1ncc2c(n1)CN(C(=O)c1csc3c1CCCC3)C2,-6,0.85

Structure (SMILES),% Inhibition [%],Z score
C[N+](Cc1coc(-c2ccccc2)n1)(Cc1coc(-c2ccccc2)n1)Cc1coc(-c2ccccc2)n1,7,-1.03
Cc1noc(C)c1CNC1(CO)CC(C)CC(C)(C)C1 (stereo not drawn),-2,0.29
COc1cccc(C(=O)N2CCC(N3C[C@H](O)C[C@H]3C(=O)NCc3cc(F)cc(F)c3)CC2)c1,-3,0.34
CC(C)CNC(N)=NCc1ccc(F)cc1,-2,0.32
COc1ccc(CC(=O)N2CCN(c3nc(CN4CCN(c5cc(Cl)ccc5OC)CC4)cc(=O)[nH]3)CC2)cc1,4,-0.59
CCNC(=O)NCCc1cn(CC(C)C)c2ncccc12,5,-0.96
Cc1cc([C@@H](C)NC(=O)CCc2nc(N(C)C)no2)ccc1F,35,-3.96
C[C@H](NCC(C)(C)C(N)=O)c1ccc(Cl)cc1,8,-0.95
Cc1cc(C)nc(N2C(=O)N(C)C(O)C2O)c1 (stereo not drawn),30,-3.86
O=C(NC(c1ccc(F)cc1)C1CCCO1)c1cnsn1 (stereo not drawn),-9,0.99
O=C(CCc1ccc(CC2CCN(Cc3cccnc3)CC2)cc1)NCC1CC1,-18,3.36
Cc1cc(NC(=O)C2(C#N)CCCCC2)[nH]n1,-11,1.3
CCC(C)(CC)c1nc(-c2ccc(S(C)(=O)=O)cc2)no1,-7,1.16
Nc1nc2c(c(C(=O)N3CC[C@@]4(CCCN(CC5CCC5)C4=O)C3)n1)CCCC2,-2,0.31
Cc1ccc(-n2ncc3c2CC(C)(C)C[C@@H]3NC(=O)CN2CCOC2=O)cc1,-36,3.19
O[C@H](COc1ccc2c(c1)CCC2)CN1CCN(c2ccccc2)CC1,6,-0.7
CC1(C)CO[C@H](c2ccccc2Cl)CN1c1cnc(C#N)cn1,-1,0.19
O=C(N[C@H](CO)CCO)c1ccc(N2CCC2)nc1,-8,1.42
OCc1cccc(CNC2CCN(c3ccc4c(c3)CCC4)CC2)c1,-5,0.95
CC(C)C(=O)N1CC(C(=O)NCc2ccccn2)C(c2cccc(F)c2)C1 (stereo not drawn),-12,1.35
O=C(CC1CC1)N1CCC[C@H](CCc2noc(-c3ccc(F)cc3)n2)C1,-10,1.6

Structure (SMILES),% Inhibition [%],Z score
O=S(=O)(c1ccccc1)N1CC(N(CC2CC2)C2CCOCC2)C1,0,0.08
C[C@@H](COc1ccc(F)cc1F)NC(=O)NC1CCCCC1,4,-0.46
N#C[C@H]1CCCN(C(=O)c2ccc(-c3ncc(C(=O)O)cc3Cl)cc2)C1,1,-0.13
CCOC(=O)CN(CCC#N)C1CCCC1,4,-0.54
CS(=O)(=O)N1CCC(c2nnc3sc(Cc4ccc(Cl)cc4)nn23)CC1,27,-3.49
COc1ccc(CN2CCN(C(=O)c3ccco3)CC2)cn1,1,-0.1
CN(CCOc1ccc(O)cc1)Cc1nc(-c2ccsc2)no1,2,-0.26
O=C(O)[C@@H]1Cc2nc[nH]c2CN1C(=O)c1csc2c1CCCC2,-11,1.72
CC1(C)C[C@]1(C(=O)N1CCC(CO)(CN2CCCC2)CC1)c1ccccc1,10,-1.38
CCN1CN(C(=O)NCc2ccc(Cn3ccnc3)cc2)CC1=O,-12,1.17
COc1ccc(-c2onc(C)c2C(=O)N[C@H](C)c2cccc(OC)c2)cc1,5,-0.85
Cc1ccc(S(=O)(=O)NCC[C@@H](CCO)c2ccsc2)s1,4,-0.55
CC1(C)CC(=O)c2cnc3c(C(=O)Nc4ccc(F)cc4)cnn3c2C1,-1,0.13
C[C@@H](c1ccccc1)N(C)C(=O)Cc1ccc(NS(=O)(=O)c2cccs2)cc1,4,-0.79
CN1CC(NC(=O)C2(Cc3ccccc3)CC3CCC2C3)CCC1=O (stereo not drawn),-6,0.57
CCc1onc(C)c1CNC(=O)[C@@H]1CCCC[C@@H]1N1CCCC1=O,6,-0.69
Cc1ccccc1C(=O)N(Cc1cccc(F)c1)c1ccc(CC(=O)NCC2CC2)cc1,5,-0.84
Cn1cncc1CN1C[C@H](Oc2ccccc2)[C@@H](O)C1,-4,0.5
c1cc2c(cc1CNC1CCCC1)CCO2,-4,0.64
N#Cc1cccc(CN(c2ccccn2)[C@H]2CC[C@H](N)CC2)c1,9,-1.4
Cc1ccc(C2c3[nH]c4ccccc4c3C[C@H]3C(=O)N(C4CCCC4)CC(=O)N23)cc1 (stereo partly drawn),7,-0.87

Structure (SMILES),% Inhibition [%],Z score
O=C1NCCCC[C@@H]1NC(=O)N1CCOc2cccc(F)c2C1,-5,1.01
CN(Cc1ccc2ccccc2n1)C(=O)NC1(C(=O)O)CCCC1,-10,1.04
Cc1cc(C(=O)N2CC(n3ccnn3)C2)no1,-10,1.42
Cc1ccc([C@H](CNc2oc(-c3cccnc3)nc2C#N)N2CCCCCC2)cc1,2,-0.33
CCC(C)(C)NC(=O)CN1CCC[C@H]1c1nc(-c2ccccc2)n[nH]1,31,-3.46
COC1(c2ccccc2)CN(c2ncnc3ccccc23)C1,-10,1.31
Nc1nc2c(c(N3CC=CC3)n1)CCN(C(=O)Cn1cnnn1)CC2,-13,2.55
COc1ccc(S(=O)(=O)C(F)(F)F)cc1NC(=O)CCCNC(=O)C(C)(C)C,0,-0.04
COc1ccccc1CN(c1cc(N2CCC[C@H](CO)C2)ncn1)C1CC1,-8,0.76
Fc1cccnc1CNc1ncccn1,-9,0.9
Fc1ccccc1CNc1nc(-c2nnc(-c3ccccc3)o2)nc2ccccc12,-8,1.47
CCCc1cc(N2CCN(Cc3cncnc3)CC2)nc(C)n1,-20,2.18
O=C(OCc1ccccc1)C1C2CCC(C2)N1C(=O)NC1CCCCC1 (stereo not drawn),-2,0.36
O=C1CN(CC(=O)N[C@H](c2ccccc2)C2CCCCC2)CCN1,-3,0.55
COC(=O)c1cc(NC(=O)[C@H]2CCOC2)cc(C(=O)OC)c1,-7,0.69
CCN(Cc1nnnn1C(C)(C)C)c1cnn(C)c1,4,-0.38
COc1ccc(C)cc1NC(=O)Cn1c(=O)n(Cc2ccc3c(c2)OCO3)c(=O)c2sccc21,11,-1.59
Cc1cc(Cn2c(C)nc3c2CCCC3)no1,1,-0.22
Cc1ccc(-c2noc(C[C@H]3CNCCS3(=O)=O)n2)cc1Cl,7,-0.86
OC[C@H]1CCCN1Cc1cnc2c(-c3ccccc3)cnn2c1,1,-0.15
Cc1nc2c(c(=O)n1C)CN(C(=O)CCc1ccc3c(c1)OCO3)C2,-6,0.9
